Where two headings read alike, the source gives them in different places.

Assay [1] concerns the target T1, L1-CAM-Fc (UniProt P32004 20-1120, limits assumed).
T1 construct: also called antigen L1-CAM-Fc; not shown: Fc part
Nature of the assay: SPR (Biacore T100), L1-CAM-Fc immobilised on CM5 chip. The protocol:
(§1) In Vitro Binding Kinetics by Biacore T-100 Biosensor (GE Healthcare, Uppsala, Sweden). CM5 sensor chip (Research grade) and related reagents were purchased from Biacore USA (Piscataway, NJ). Antigen L1-CAM-Fc or L1-CAM-His was directly immobilized onto the CM5 sensor chip according to the manufacturer's instructions. Purified monoclonal antibodies (MoAbs) (mouse, chimeric IgG1 and IgG4, and humanized IgG1 and IgG4 versions of E71 and E72, and their IgG1n glycoforms) were diluted in HBS-EP buffer at varying concentrations (41.7˜666.7 nM) prior to analysis. Samples were injected over the sensor surface at a flow rate of 30 μl/min over 1 min. Association time was set for 1 min, dissociation time was set for from 5 min to 15 min. At the end of each cycle, the surface was regenerated using 50 mM NaOH at a flow rate of 50 μl/min over 1 min. The data were analyzed by the bivalent analyte model and default parameter setting for the rate constants using the Biacore T-100 evaluation software, and the apparent association on rate constant (kₒₙ), dissociation off rate constant (koff) and equilibrium dissociation constant (Kd=koff/kₒₙ) were calculated.
The binding of huE71-BsAb and huE72-BsAb to both target cells and effector cells was tested by FACS immunostaining. huE71-BsAb was equally efficient as parental huE71 in binding to L1-CAM(+) neuroblastoma BE(2)C, whereas the binding of huE72-BsAb to BE(2)C was half of that observed with huE71-BsAb (FIG. 38(A)). For binding to CD3(+) T cells, both huE71-BsAb and huE72-BsAb were less efficient compared to huOKT3 IgG1; around 20 fold weaker than huOKT3 (FIG. 38(B)). The reduced avidity of the light chain-anchored scFv of the BsAbs for T cells was attributable in part to the spatial constraints of this format, but is advantageous for minimizing cytokine release especially when target cells were not present.
For orientation: Surface plasmon resonance follows binding to a sensor surface in real time, without labels.

In assay [2] the target is T1, L1-CAM-Fc. The description is as above. The protocol: as §1
T1 sequence (P32004 20-1120 limits assumed): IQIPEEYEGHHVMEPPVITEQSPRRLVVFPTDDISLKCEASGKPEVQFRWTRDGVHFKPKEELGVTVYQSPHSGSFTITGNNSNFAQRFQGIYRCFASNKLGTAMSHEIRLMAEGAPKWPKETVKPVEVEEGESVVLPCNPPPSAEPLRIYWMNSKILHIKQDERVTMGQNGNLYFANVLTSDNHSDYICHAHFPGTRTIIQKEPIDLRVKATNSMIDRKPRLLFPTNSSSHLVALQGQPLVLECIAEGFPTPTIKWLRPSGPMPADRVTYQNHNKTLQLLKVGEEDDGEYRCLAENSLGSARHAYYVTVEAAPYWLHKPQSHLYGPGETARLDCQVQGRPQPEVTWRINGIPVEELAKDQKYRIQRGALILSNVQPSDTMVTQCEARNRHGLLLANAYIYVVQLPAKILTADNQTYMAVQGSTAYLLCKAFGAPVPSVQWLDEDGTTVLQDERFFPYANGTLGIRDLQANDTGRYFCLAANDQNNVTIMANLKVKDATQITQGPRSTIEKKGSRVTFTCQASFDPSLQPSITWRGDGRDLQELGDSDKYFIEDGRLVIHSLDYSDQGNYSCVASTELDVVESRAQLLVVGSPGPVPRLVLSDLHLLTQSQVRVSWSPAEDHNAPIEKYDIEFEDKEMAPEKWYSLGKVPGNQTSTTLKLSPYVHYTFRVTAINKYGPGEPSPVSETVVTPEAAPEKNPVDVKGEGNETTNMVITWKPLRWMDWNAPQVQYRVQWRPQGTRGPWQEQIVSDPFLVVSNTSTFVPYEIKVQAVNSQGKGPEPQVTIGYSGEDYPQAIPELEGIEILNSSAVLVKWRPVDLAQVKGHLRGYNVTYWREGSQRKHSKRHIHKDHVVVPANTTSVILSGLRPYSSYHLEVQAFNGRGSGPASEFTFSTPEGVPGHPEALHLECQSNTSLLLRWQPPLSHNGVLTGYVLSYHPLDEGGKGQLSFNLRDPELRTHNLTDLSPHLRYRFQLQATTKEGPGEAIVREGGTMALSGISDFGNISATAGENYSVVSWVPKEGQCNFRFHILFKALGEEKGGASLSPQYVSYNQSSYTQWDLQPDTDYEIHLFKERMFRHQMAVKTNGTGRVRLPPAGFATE
The source holds these as a separate data set.

For assay [3], the target named is T2, L1-CAM on L1-CAM(+) human tumor cells (human, UniProt P32004 20-1257).
T2 construct: whole, on cells; also called CD171; antigen on BE(2)C, SKOV3, IMR32-luciferase and other tumor cells
Nature of the assay: Lindmo cell binding assay of the radiolabelled antibody on SKOV3 cells. The protocol: FIGS. 48(A)-48(E) show the immunoreactivity of ⁸⁹Zr-radiolabeled L1-CAM antibodies of the present technology. The radioimmunoconjugates were functionally characterized for binding to antigen-expressing cells (SKOV-3) and the determination of the immunoreactive fraction via Lindmo assays (Ben Q W et al., Ann Surg Oncol 17:2213-21 (2010)). Aliquots of each radioimmunoconjugate, 50 μL of 1 μCi/mL stock were added to tubes containing 5.0×10⁵-5.0×10⁶ cells/mL (in triplicate) in 500 μL PBS, 1% BSA (pH 7.4 to a final volume of 550 μL). Cell bound activity was counted and data graphed on double-reciprocal plot. Immunoreactive fractions are presented as mean percentages of triplicate samples±SEM.
Immunoreactivity. The immunoreactive fraction of the ⁸⁹Zr-DFO-antibodies was determined using a Lindmo cell binding assay (Ben Q W et al., Ann Surg Oncol 17:2213-21 (2010)). To this end, SKOV3 cells were suspended in microcentrifuge tubes at concentrations ranging from 5.0×10⁵-5.0×10⁶ cells/mL in 500 μL PBS, 1% BSA (pH 7.4). Aliquots of ⁸⁹Zr-DFO-antibody (50 μL of 1 μCi/mL stock were added to each tube to a final volume of 500 μL. The samples were incubated on a thermomixer for 60 min at 37° C. The treated cells were then pelleted via centrifugation (1400 RPM for 4 min), aspirated supernatant, and washed three times with cold PBS before removing the supernatant and counting the cell-associated radioactivity. The activity data were background-corrected and compared with the total number of counts in appropriate control samples. Immunoreactive fractions were determined by linear regression analysis of a plot of (total/bound) activity against (1/[normalized cell concentration]).
To determine the extent to which these antibodies were able to bind the target post-radiolabeling, immunoreactivity assays were performed. Briefly, the ⁸⁹Zr-labeled antibodies were incubated with increasing concentrations of target positive ovarian cancer cells (SKOV3) and, following washes, the cell bound activity was counted and used to calculate the immunoreactive fraction.

B1: huE71-IgG1 (huE71 H1/L1) (antibody)
heavy: QVQLVQPGDELVKPGASVKLSCKASGYTFTSYWMQWVKQRPGQGLEWIGEINPSNGRTNYNEMFKSKAVLSVDKSVSTAYMQLSSLTAEDTAVYYCALYDGYYAMDYWGQGTLVTVSS[human IgG1 constant region not shown]
light: DIVMTQSPSSLAVSVGERVTMSCKSSQSLLYSSNQKNYLAWYQQKPGQSPKLLIYWASTRESGVPDRFSGSGSGTDFTLTISSVKAEDVALYYCQQYHSYPFTFGQGTKLEIKRTVAAPSVFIFPPSDEQLKSGTASVVCLLNNFYPREAKVQWKVDNALQSGNSQESVTEQDSKDSTYSLSSTLTLSKADYEKHKVYACEVTHQGLSSPVTKSFNRGEC
notes: Wild-type human IgG1, made in DG44 or CHO-S cells; also called parental huE71; humanized E71 IgG1
Take B1: in the assay with L1-CAM-Fc [1], the Kd (usually the concentration at which binding is half-saturated) was 4.62 nM; the koff – broadly, a measure of how fast the partners let go of each other – amounted to 0.000325 s⁻¹; the on-rate (kon) (usually a measure of how fast the partners come together) was 70300 M⁻¹ s⁻¹.

B2: chE71-IgG4 (antibody)
heavy: QVQLQQPGDELVKPGASVKLSCKASGYTFTSYWMQWVKQRPGQGLEWIGEINPSNGRTNYNEMFKSKATLTVDKSSSTAYMQLSSLTSEDSAVYYCALYDGYYAMDYWGQGTSVTVSSASTKGPSVFPLAPCSRSTSESTAALGCLVKDYFPEPVTVSWNSGALTSGVHTFPAVLQSSGLYSLSSVVTVPSSSLGTKTYTCNVDHKPSNTKVDKRV[human IgG4 Fc not shown]
light: DIVMSQSPSSLAVSVGEKVTMSCKSSQSLLYSSNQKNYLAWYQQKPGQSPKLLIYWASTRESGVPDRFTGSGSGTDFTLTISSVKAEDLALYYCQQYHSYPFTFGSGTKLEIKRTVAAPSVFIFPPSDEQLKSGTASVVCLLNNFYPREAKVQWKVDNALQSGNSQESVTEQDSKDSTYSLSSTLTLSKADYEKHKVYACEVTHQGLSSPVTKSFNRGEC
B2: the dissociation constant Kd with L1-CAM-Fc [2] worked out at 15.2 nM.

B3: 89Zr-HuE71-4 WT (antibody, human IgG4, kappa)
heavy: QVQLVQPGDELVKPGASVKLSCKASGYTFTSYWMQWVKQRPGQGLEWIGEINPSNGRTNYNEMFKSKAVLSVDKSVSTAYMQLSSLTAEDTAVYYCALYDGYYAMDYWGQGTLVTVSSASTKGPSVFPLAPCSRSTSESTAALGCLVKDYFPEPVTVSWNSGALTSGVHTFPAVLQSSGLYSLSSVVTVPSSSLGTKTYTCNVDHKPSNTKVDKRV[human IgG4 Fc not shown]
light: DIVMTQSPSSLAVSVGERVTMSCKSSQSLLYSSNQKNYLAWYQQKPGQSPKLLIYWASTRESGVPDRFSGSGSGTDFTLTISSVKAEDVALYYCQQYHSYPFTFGQGTKLEIKRTVAAPSVFIFPPSDEQLKSGTASVVCLLNNFYPREAKVQWKVDNALQSGNSQESVTEQDSKDSTYSLSSTLTLSKADYEKHKVYACEVTHQGLSSPVTKSFNRGEC
modifications: p-SCN-Bn-DFO chelator on random lysines of the antibody, 89Zr-labelled; p-SCN-Bn-DFO chelator on random lysines of the antibody, 89Zr-labelled, average 1.30 chelates per antibody
notes: also called huE71-IgG4 (radiolabelled)
As to B3, the immunoreactive fraction in assay [3] worked out at 86.7%.

B4: 89Zr-HuE71-1 MAGE (antibody, human IgG1, kappa)
heavy: QVQLVQPGDELVKPGASVKLSCKASGYTFTSYWMQWVKQRPGQGLEWIGEINPSNGRTNYNEMFKSKAVLSVDKSVSTAYMQLSSLTAEDTAVYYCALYDGYYAMDYWGQGTLVTVSS[human IgG1 constant region not shown]
light: DIVMTQSPSSLAVSVGERVTMSCKSSQSLLYSSNQKNYLAWYQQKPGQSPKLLIYWASTRESGVPDRFSGSGSGTDFTLTISSVKAEDVALYYCQQYHSYPFTFGQGTKLEIKRTVAAPSVFIFPPSDEQLKSGTASVVCLLNNFYPREAKVQWKVDNALQSGNSQESVTEQDSKDSTYSLSSTLTLSKADYEKHKVYACEVTHQGLSSPVTKSFNRGEC
modifications: p-SCN-Bn-DFO chelator on random lysines of the antibody, 89Zr-labelled; glycans lacking alpha-1,6-fucose (GnT1-deficient CHO); p-SCN-Bn-DFO chelator on random lysines of the antibody, 89Zr-labelled, average 2.38 chelates per antibody
notes: also called 89Zr-huE71-IgG1n; 89Zr-HuE71-IgGn (MAGE)
B4: in assay [3], the immunoreactive fraction stood at 89.5%.

B5: chE71-IgG1 (antibody)
heavy: QVQLQQPGDELVKPGASVKLSCKASGYTFTSYWMQWVKQRPGQGLEWIGEINPSNGRTNYNEMFKSKATLTVDKSSSTAYMQLSSLTSEDSAVYYCALYDGYYAMDYWGQGTSVTVSS[human IgG1 constant region not shown]
light: DIVMSQSPSSLAVSVGEKVTMSCKSSQSLLYSSNQKNYLAWYQQKPGQSPKLLIYWASTRESGVPDRFTGSGSGTDFTLTISSVKAEDLALYYCQQYHSYPFTFGSGTKLEIKRTVAAPSVFIFPPSDEQLKSGTASVVCLLNNFYPREAKVQWKVDNALQSGNSQESVTEQDSKDSTYSLSSTLTLSKADYEKHKVYACEVTHQGLSSPVTKSFNRGEC
notes: also called chimeric E71
On to B5, for which binding with L1-CAM-Fc [2] was characterised by a dissociation constant (Kd) of 14.9 nM.

B6: 89Zr-HuE71-1 WT (antibody, human IgG1, kappa)
heavy: QVQLVQPGDELVKPGASVKLSCKASGYTFTSYWMQWVKQRPGQGLEWIGEINPSNGRTNYNEMFKSKAVLSVDKSVSTAYMQLSSLTAEDTAVYYCALYDGYYAMDYWGQGTLVTVSS[human IgG1 constant region not shown]
light: DIVMTQSPSSLAVSVGERVTMSCKSSQSLLYSSNQKNYLAWYQQKPGQSPKLLIYWASTRESGVPDRFSGSGSGTDFTLTISSVKAEDVALYYCQQYHSYPFTFGQGTKLEIKRTVAAPSVFIFPPSDEQLKSGTASVVCLLNNFYPREAKVQWKVDNALQSGNSQESVTEQDSKDSTYSLSSTLTLSKADYEKHKVYACEVTHQGLSSPVTKSFNRGEC
modifications: p-SCN-Bn-DFO chelator on random lysines of the antibody, 89Zr-labelled; p-SCN-Bn-DFO chelator on random lysines of the antibody, 89Zr-labelled, average 1.41 chelates per antibody
notes: also called HuE71-1 WT (radiolabelled)
B6 yielded an immunoreactive fraction in assay [3] of 93.1%.

B7: huE71-IgG1n (antibody)
heavy: QVQLVQPGDELVKPGASVKLSCKASGYTFTSYWMQWVKQRPGQGLEWIGEINPSNGRTNYNEMFKSKAVLSVDKSVSTAYMQLSSLTAEDTAVYYCALYDGYYAMDYWGQGTLVTVSS[human IgG1 constant region not shown]
light: DIVMTQSPSSLAVSVGERVTMSCKSSQSLLYSSNQKNYLAWYQQKPGQSPKLLIYWASTRESGVPDRFSGSGSGTDFTLTISSVKAEDVALYYCQQYHSYPFTFGQGTKLEIKRTVAAPSVFIFPPSDEQLKSGTASVVCLLNNFYPREAKVQWKVDNALQSGNSQESVTEQDSKDSTYSLSSTLTLSKADYEKHKVYACEVTHQGLSSPVTKSFNRGEC
modifications: variant Fc glycosylation from GnT1-deficient CHO cells (glycans lacking alpha-1,6-fucose)
notes: also called huE71-IgGn; HuE71-1 MAGE (unlabelled)
Turning to B7, binding with L1-CAM-Fc [2] was put at a Kd of 38.8 nM. This lies in the double-digit nanomolar range.

B8: huE71-IgG4 (antibody)
heavy: QVQLVQPGDELVKPGASVKLSCKASGYTFTSYWMQWVKQRPGQGLEWIGEINPSNGRTNYNEMFKSKAVLSVDKSVSTAYMQLSSLTAEDTAVYYCALYDGYYAMDYWGQGTLVTVSSASTKGPSVFPLAPCSRSTSESTAALGCLVKDYFPEPVTVSWNSGALTSGVHTFPAVLQSSGLYSLSSVVTVPSSSLGTKTYTCNVDHKPSNTKVDKRV[human IgG4 Fc not shown]
light: DIVMTQSPSSLAVSVGERVTMSCKSSQSLLYSSNQKNYLAWYQQKPGQSPKLLIYWASTRESGVPDRFSGSGSGTDFTLTISSVKAEDVALYYCQQYHSYPFTFGQGTKLEIKRTVAAPSVFIFPPSDEQLKSGTASVVCLLNNFYPREAKVQWKVDNALQSGNSQESVTEQDSKDSTYSLSSTLTLSKADYEKHKVYACEVTHQGLSSPVTKSFNRGEC
notes: unlabelled form of m13; also called HuE71-4 WT (unlabelled)
As to B8, binding with L1-CAM-Fc [2] was characterised by a dissociation constant (Kd) of 15.2 nM.

B9: 89Zr-HuE71-1 Aglyco (antibody)
heavy: QVQLVQPGDELVKPGASVKLSCKASGYTFTSYWMQWVKQRPGQGLEWIGEINPSNGRTNYNEMFKSKAVLSVDKSVSTAYMQLSSLTAEDTAVYYCALYDGYYAMDYWGQGTLVTVSS[human IgG1 constant region with changes not shown]
light: DIVMTQSPSSLAVSVGERVTMSCKSSQSLLYSSNQKNYLAWYQQKPGQSPKLLIYWASTRESGVPDRFSGSGSGTDFTLTISSVKAEDVALYYCQQYHSYPFTFGQGTKLEIKRTVAAPSVFIFPPSDEQLKSGTASVVCLLNNFYPREAKVQWKVDNALQSGNSQESVTEQDSKDSTYSLSSTLTLSKADYEKHKVYACEVTHQGLSSPVTKSFNRGEC
modifications: p-SCN-Bn-DFO chelator on random lysines of the antibody, 89Zr-labelled; Aglycosylated through N297A. p-SCN-Bn-DFO chelator on random lysines, average 1.07 per antibody, labelled with 89Zr; the positions are not defined.
notes: also called HuE71-1 Aglyco (radiolabelled)
In assay [3], B9 yielded an immunoreactive fraction of 85.8%.

For the origin of these results see US20240002501A1 (Memorial Sloan Kettering, published 2024).
